Experimental data published in the supplement of paper PMC4466236.
Over roughly 33,000 sequences, “E-score (dimensionless, -0.5 to 0.5)” has its median near -0.058; the highest 2% begin near 0.35. The list shows a part of the results.

System: MvaT
Experiment: PBM 8-mer E-score (mean of HK and ME arrays) (E-score (dimensionless, -0.5 to 0.5)); higher = stronger relative binding preference; most listed sequences are background and not binding sites
How it was run: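 Full-length P. aeruginosa MvaT, with glutathione S-transferase fused to its N-terminus (cloned into pTH6838 by isothermal assembly), was tested by protein binding microarray using a previously described protocol. Two universal double-stranded 60-mer arrays (ME and HK) were used, each with a constant 25-mer primer region and a variable 35-mer region covering all 8-mers. The rank-based 8-mer E-score (-0.5 to 0.5) is the mean of the two arrays, parsed with a custom Python script.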

Sequence	PBM 8-mer E-score
AGCAGCGG	-0.196
ACCGCTCT	-0.144
CTACCCCA	-0.0266
GAGACCGC	-0.34
CGCTTGTC	-0.22
GTGCTGTA	0.0346
AATCGTAA	0.236
CCAGCATC	-0.221
CATGAATC	0.0498
AAATTGCC	0.23
CCGCGACC	-0.253
GAGGCTCC	-0.316
TAAAGTTA	0.315
AGCTAGAA	0.0178
AGCTGAGA	-0.0354
GGACGACC	-0.324
CAGCAACG	-0.128
AAACGTTC	-0.145
ATGGCTCC	-0.134
CCCGGTCG	-0.255
TCCCCCCA	-0.235
CAAATGAA	0.151
AAAACCCC	-0.261
TCTACACA	-0.00588
AATCCTAG	-0.0881

Sequence	PBM 8-mer E-score
GCCTTGAA	-0.137
GCGGTTTA	0.0736
ATGCGATA	0.127
ATGCGAGG	-0.0953
CCCGCAGA	-0.249
CAAGGGCC	-0.256
ATAGTTTG	0.267
AAGTTCCA	0.2
AGCCACGC	-0.309
GAAGACCC	-0.229
TAAATGGA	0.214
CCCAAATA	0.14
CTAATAGC	0.0517
AAATAGGC	0.11
ATGTCAAG	0.0552
AGTATGGG	0.0333
GGAGCCTA	-0.266
CATAAGAA	0.126
GAGGCGCA	-0.21
AAGTGCGC	0.139
GTATAAAC	0.316
ATGAAAGG	-0.0354
GCGAACCA	-0.0933
CCACGCAG	-0.247
ACCATACT	0.163

Sequence	PBM 8-mer E-score
CGACTCCC	-0.208
AATTATAA	0.468
TACCTTGA	0.00172
ATACCGAT	0.156
TAAGAAGA	0.0421
AAAGATGC	0.0129
CCTACGGC	-0.233
CACGACTG	-0.114
TCGCGGCA	-0.137
CATTAATC	0.341
GGAGGTCA	-0.31
AGGACCAT	-0.205
GATCATAA	0.189
AAACATAC	0.284
AGTCCTAC	-0.0839
ATGCGATC	-0.0626
TACGGTCA	0.0766
AGGTTGCG	-0.0949
CGAGCTAC	-0.199
ACCGTTGC	-0.0839
GAACCTGA	-0.0412
CAGCTTAA	-0.0172
CATCGCAA	0.0845
GGACAACA	0.149
ACCTTCGA	-0.237

Sequence	PBM 8-mer E-score
ACACGACT	-0.0741
TGACAAAA	0.265
TGCGCCCA	-0.288
TCACGGGA	-0.111
AGATACAT	0.237
GGAAAGTA	0.072
AACTGTGA	0.168
CCCGTCAG	-0.267
ACCCCTCA	-0.187
GCAAGCGC	-0.166
AAATGAGT	0.125
ACGAAAGT	0.13
GGACACCC	-0.279
AAGCGAGC	-0.0148
TGGACCCA	-0.295
AACCAATC	0.132
ATACATAG	0.294
CATGACAG	-0.212
ATAAGAGA	0.177
GTGAAATA	0.262
AACTTCAA	0.345
ATAAAACC	0.246
CTACGCGA	-0.0603
CGGGTGTC	-0.123
CAGCTTTA	0.13

Sequence	PBM 8-mer E-score
AGCGCCTA	-0.16
AAGACTCC	-0.0249
ACTAGCCA	-0.0869
CGATCGCC	-0.0902
CCAGCTAC	-0.209
GAAGTACA	0.171
AAAGGAGC	-0.27
CACGCTAC	-0.025
TAAGCCCA	0.0568
AACGTCCC	-0.176
GTGGACAA	0.00541
CGAGTGTC	-0.134
AAGGGTCC	-0.117
CTATTACA	0.267
GGGTCGGA	-0.291
ACTGGTGG	-0.126
GAACCTCA	-0.186
ACACGGAG	-0.193
CTCTTTCC	-0.112
CCTACTGA	-0.277
ATGTAACC	0.0775
CAGACAAC	0.0973
ACTCGGTG	-0.099
TGTCAACA	-0.0136
ATAGCCTC	-0.0964

Sequence	PBM 8-mer E-score
AAACTTGG	0.112
GGTCCCGA	-0.169
CGCGCTAC	-0.0539
GCCGGATA	0.0499
GGGTTTCA	-0.25
ACTCAGAG	-0.000689
TAGACATA	0.0656
AGACTCAT	-0.0553
CTAGTATA	0.331
AGGGTACT	0.0457
ATCCAGCG	-0.103
CGCACAAA	0.0368
ACGAACCT	-0.133
ATTCGGAA	0.0557
GCACCGTA	-0.217
GGTGCGGA	-0.235
AATGATGT	0.179
GAAGCCTC	-0.36
TGAGTCCA	-0.208
AGTTCCGG	-0.00523
AACTACAA	0.304
GCCTTACC	-0.267
AACAGCTT	0.05
GGAGTAAA	-0.0939
ATCGCGCC	-0.0414

Sequence	PBM 8-mer E-score
AACCATAT	0.254
CGGAGCGA	-0.238
GGTTAGGA	-0.11
GCCAAGAA	-0.043
TCTCAAAA	0.0618
CAAGTGGC	-0.136
CACCTGAC	-0.129
ATAAGCTG	0.188
ATTCGGGG	-0.0391
CGGCTCCC	-0.288
CGCGCTTC	-0.107
ATCGGAGA	-0.102
GAACGGCC	-0.248
AACTAGCT	0.0966
ATGCGTTC	0.0369
AATCTGTC	0.0896
GTGAACAA	0.0563
ACGATACA	-0.0203
ACTACCCC	-0.0705
AAACAGGG	-0.041
ACCCCGAA	-0.179
AAGTCCTA	0.0165
